Test results published in the supplement of paper PMC10126150.
Sequences with one replicate were seen in a single cluster, so their values are uncertain.

System: ATP
Experiment: switch fluorescence ratio, 500 uM ATP over buffer (Cy3 cluster intensity, sum of 5 cycles each) (fold (ratio)); higher = stronger signal-on switching upon ATP binding; sequences stand for … in TCGTCGGCAGCGTCAGATGTGTATAAGAGACAGTTTTTTTTTTTTTTTTTTTTTTTTT…TC
Details: aptamer strand: ATP DNA aptamer (quencher-CACCTGGGGGAGTATTGCGGAGGAAGG + anchor), 100 nM annealed; ATP concentration: 500 uM; one replicate
In short: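 Switching-strand clusters labelled with Cy3 on a modified Illumina MiSeq flow-cell were annealed to 100 nM quencher-labelled ATP aptamer, imaged in selection buffer, and re-imaged after 15 min with 500 uM ATP at 22 °C. This was done over five cycles with NaOH stripping and re-annealing in between. The fluorescence ratio is summed target-cycle over summed buffer-cycle Cy3 intensity per cluster, averaged per switch-domain sequence, excluding clusters outside 100-1000 RFU.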
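Further: ATP exposure 15 min at 22 °C before imaging.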

Sequence	switch fluorescence ratio
AAAGCACTCC	1.13
GAGTCAGCAT	1.83
TAGGTGAAA	0.954
CTTAATATTT	1.03
GGTCATATTA	0.977
AAGCTTGTCG	0.943
TTACATCATA	1.03
ATTCTTTTTG	0.958
TTGTACGGGA	1.05
CCTCGTATA	2.87
TAAGAGCTCG	1.42
ATTAGGCTTC	0.997
TTGGCCTTGT	0.997
ATATCGGGAG	1.03
TGCAGATTAT	0.979
CGTCCAGGGA	1.18
CGTCTTTGAA	0.984
TCCTAGGAAA	1.09
TTGATCGATT	1.02
TAGGCGCCAA	1.01
GATTGTGAGC	1.03
TTGCCTGTCA	0.981
CTTCACAGAA	0.993
TTTCCCTCAT	1.06
GAAAACCAGA	1.02
AAGGCCGGGG	0.97

Sequence	switch fluorescence ratio
CTAAAGGGCG	1.03
TTCTTCTCTA	1.16
AGTCGTTTTG	0.951
TCAGCTCAT	1.01
CTGATCTTGA	0.945
GAGTACCGCT	0.978
TACTCGAGAT	1.05
GTCCGTAGCC	2.37
GGCTCCGTAT	1.22
GACCGGAGGC	0.996
TGATCACCTC	1.01
GTAGGAACAC	1.34
TTGTGGGCGG	0.953
ATGTCCTTAG	1.02
AGAAATAGTA	0.984
AGGTAAAAGT	0.975
CTGCTGGCAG	0.998
GACCTTGGAC	1.01
GCTTTAGACG	0.914
CTTTCAGTTT	0.971
ACTACTCAAC	1.37
AAGCTTGGGG	1.04
GATCCCCTCC	1.17
ACATTCTCG	1.02
ACGCATTTGT	1.13
GGCAATTAT	1.06

Sequence	switch fluorescence ratio
TACTGCTGGT	1.01
CGTAGATAAG	1.01
GGTTGACGCC	0.98
GGATCCTGAG	1.03
TTAGGAGG	0.995
AGTTTATGTT	0.946
CGCCGTGAAT	1.03
GATCACTATC	0.999
TTGCAAGTGC	1.45
TCTGTAGGAT	0.99
CTTTAAGGTC	0.995
GACCTTCAGT	1.01
CCGAGGATCT	1.03
CAAGCAGGGG	1.31
GGTGTTACCC	0.99
TTTACTCAT	0.983
ACTTTTCTCA	1.01
TCGGTATTAA	0.994
TGTTAAATAA	1.01
CGATTTGGAT	0.98
GTGAAAAGG	0.972
TACGAACGAA	1.48
TTCAGCTGT	1
TGGATAATGG	0.972
TTTGTTAAGA	1.05
CTTGAGTCCT	0.976

Sequence	switch fluorescence ratio
AGCCCAACAC	1.08
TTGTTGATGG	0.998
TGCGAGTGCG	1.15
GAAGATCCAA	1
TGGCGGCGTT	1.05
TCAAAAATTA	0.979
CAATGGTTAT	1.01
GCGACCTGAT	1.05
TTGTACCAGG	1.56
TAGGCTTAGT	1
CATATCGTAT	1.02
CTGTATTTGC	0.988
CTTACTTGAT	1.03
GGGTTGGC	0.899
ATGGTTCCGT	0.948
ATATCATCCC	1.09
TTTTATTAA	0.992
TTGCTCCAGG	1.84
GCAGCAGCCA	1.02
ACTCCGTCAG	6.95
ATAGAGTATA	0.964
GCAATTTCTA	1.07
ATCATATTAA	0.986
ACCTTTAAC	1.09
CCATATACAC	1.34
AGGGCCGACA	0.999

Sequence	switch fluorescence ratio
ACTCCCTAAG	2.34
GGGGTAGTGT	0.992
CAGCTTGTTG	0.967
AAACGTAACT	1.3
TCTTATAAAG	1.08
ATGTAAATCA	0.953
CACTCAGGGC	1.12
GAGTCACTAT	1.01
GCGGTTTATA	0.988
ACGTACTAGT	1.51
GTCGACATTT	0.972
ATTATAGGAG	1
TTACATACTA	1.37
ATCAATGGTT	0.982
ACTGAGCCTA	1.01
GACTCTTTTC	0.975
ACTTTGGG	0.999
TGATTCCGTC	1.06
TAATGTTTCT	0.94
TTTGCTTGCG	0.996
TTATACAGGG	0.961
GCAGACTGAG	0.998
AGAAGAAAAG	0.987
CGGGCATGTG	0.992
AATTAGTCCT	1.01
TGCTTGTCGG	0.985

Sequence	switch fluorescence ratio
AAACGGACTT	1.22
CCGGATTGGT	0.993
AGCGCGTGTC	0.974
TTCGGTGAGA	1.02
TTATGTGGCC	1.01
AACGGCTGCT	1
AGACAGCGAC	1.09
CTATTATAAA	1.02
TAGACGGTG	0.948
TGTGTAAACA	1.04
GGGTTATT	0.985
TCCAAGCACC	1.64
AATGGGAATC	0.973
GATGAATGAT	0.99
ACCGGGGATG	1.13
TGAGTGGCCA	0.994
TGTTAATAAT	1.05
CTTAATACGC	1.34
ACTAGGCCGT	1.07
GCCGGGATCA	0.997
GACAGTGAT	1.03
GATTTTTTA	0.981
CTGGTAATCG	0.996
TTACAGTTAG	1.03
TCGCGGTAAC	2.55
GAGAAGATAA	1.05

Sequence	switch fluorescence ratio
GCTTGAAATG	0.997
GACGCGAGTA	1.11
TCAAGAGGCA	1.01
CCTGAGGGTA	1.01
GTCTTTATTT	1.01
AAATCCTTA	1.02
AAATCGTTAT	1.01
GACGCTATCC	2.47
GTGACGATTC	1.53
GGAAGAAGAC	1.01
CATTCCGGGG	1.1
GCCGGTAACT	1
GTGTGTTAAT	1.03
AATCTCAGCA	1.12
CTGTTATAAC	1.01
TGGATTTTTA	1.02
CTTGAAG	0.981
CGCAGCTGGG	1.1
TTGGAAAACA	1.01
ATCCAGAGGG	1.01
GCGCCGTATT	0.991
GTCCGGCTGC	0.948
TAACATGGG	1.02
TGATGAGTTG	0.979
GCACTACCGG	1.06
GACGGCGAAG	0.986

Sequence	switch fluorescence ratio
AGGGATCGCA	1.03
TCCCCAGCCT	1.31
ACCGCGTTAA	1.15
TGATGGCGCA	0.979
TAGCCGGTAC	1.39
CCAGTAAAA	1.01
TTATTGGTCA	1.02
CGATCAAATC	1.16
GTGTGCAAGC	1.09
GAATTAGTAG	0.97
GATCTCCCCA	1.14
GATCTCATCT	0.963
ACCGGGCTGT	0.924
GGGGATCGGA	0.997
CTCCAGTCTC	1.31
GAAATTTATC	0.97
CATTTTTTGC	1.01
ATTACGTCTT	1.02
ATCAGCTCGA	1.04
